Results are given in words; binding and its absence hold for the method and conditions named. In cells and extracts the contact can be indirect. Some binding calls cover weakened binding; strength is not graded here. For part of these data: Where a sequence is shown, tags or fusion partners need not be part of it.
B1: Myc-linked NRF2 (nuclear factor erythroid 2-related factor 2) (protein, UniProt Q60795 1-597)
chain: MMDLELPPPGLQSQQDMDLIDILWRQDIDLGVSREVFDFSQRQKDYELEKQKKLEKERQEQLQKEQEKAFFAQFQLDEETGEFLPIQPAQHIQTDTSGSASYSQVAHIPKQDALYFEDCMQLLAETFPFVDDHESLALDIPSHAESSVFTAPHQAQSLNSSLEAAMTDLSSIEQDMEQVWQELFSIPELQCLNTENKQLADTTAVPSPEATLTEMDSNYHFYSSISSLEKEVGNCGPHFLHGFEDSFSSILSTDDASQLTSLDSNPTLNTDFGDEFYSAFIAEPSDGGSMPSSAAISQSLSELLDGTIEGCDLSLCKAFNPKHAEGTMEFNDSDSGISLNTSPSRASPEHSVESSIYGDPPPGFSDSEMEELDSAPGSVKQNGPKAQPAHSPGDTVQPLSPAQGHSAPMRESQCENTTKKEVPVSPGHQKAPFTKDKHSSRLEAHLTRDELRAKALHIPFPVEKIINLPVDDFNEMMSKEQFNEAQLALIRDIRRRGKNKVAAQNCRKRKLENIVELEQDLGHLKDEREKLLREKGENDRNLHLLKRRLSTLYLEVFSMLRDEDGKPYSPSEYSLQQTRDGNVFLVPKSKKPDTKKN
B2: NRF2 131-597 (NRF2 with the 1-130 aa region removed) (domain or fragment, UniProt Q60795 131-597)
chain: DDHESLALDIPSHAESSVFTAPHQAQSLNSSLEAAMTDLSSIEQDMEQVWQELFSIPELQCLNTENKQLADTTAVPSPEATLTEMDSNYHFYSSISSLEKEVGNCGPHFLHGFEDSFSSILSTDDASQLTSLDSNPTLNTDFGDEFYSAFIAEPSDGGSMPSSAAISQSLSELLDGTIEGCDLSLCKAFNPKHAEGTMEFNDSDSGISLNTSPSRASPEHSVESSIYGDPPPGFSDSEMEELDSAPGSVKQNGPKAQPAHSPGDTVQPLSPAQGHSAPMRESQCENTTKKEVPVSPGHQKAPFTKDKHSSRLEAHLTRDELRAKALHIPFPVEKIINLPVDDFNEMMSKEQFNEAQLALIRDIRRRGKNKVAAQNCRKRKLENIVELEQDLGHLKDEREKLLREKGENDRNLHLLKRRLSTLYLEVFSMLRDEDGKPYSPSEYSLQQTRDGNVFLVPKSKKPDTKKN
B3: Endogenous NRF2 (protein, UniProt Q60795 1-597)
chain: B1 chain

The chains behind the UniProt entries cited, without tags or fusion partners. Where a name states a change or a piece, a line headed by the entry shows the natural chain unless it says otherwise. A line that says so, or that is headed by a name, gives the form on record, which may keep a tag or linker. Residues count along the entry.
UniProt Q9EPK5: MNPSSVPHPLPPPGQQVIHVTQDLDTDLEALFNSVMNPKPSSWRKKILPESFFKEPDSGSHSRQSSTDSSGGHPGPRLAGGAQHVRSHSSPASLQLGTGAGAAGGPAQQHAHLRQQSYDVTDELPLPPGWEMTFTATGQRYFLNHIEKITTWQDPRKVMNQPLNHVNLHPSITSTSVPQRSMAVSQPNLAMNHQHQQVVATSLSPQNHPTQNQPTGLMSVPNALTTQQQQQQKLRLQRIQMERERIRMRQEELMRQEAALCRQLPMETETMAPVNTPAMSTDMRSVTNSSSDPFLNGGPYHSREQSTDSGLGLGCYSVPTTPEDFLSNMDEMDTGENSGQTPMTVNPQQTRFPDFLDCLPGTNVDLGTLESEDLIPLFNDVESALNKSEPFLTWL
TAZ 1-163 (N-terminal domain of TAZ), Flag-tagged: residues 1-163 of Q9EPK5
TAZ 1-123 (N-terminal 123-amino acid region of TAZ), Flag-tagged: residues 1-123 of Q9EPK5
TAZ 124-395 (C-terminal domain of TAZ containing the WW domain), Flag-tagged: residues 124-395 of Q9EPK5

Key:
[1] = target: TAZ 1-123 (N-terminal 123-amino acid region of TAZ), Flag-tagged (UniProt Q9EPK5); test: co-IP; HEK-293T cells transfected (calcium phosphate) with Flag-tagged TAZ forms and Myc- or GFP-tagged NRF2 forms; lysates immunoprecipitated with Flag-M2 agarose beads overnight; immunoblot with anti-Myc (9E10) or anti-GFP (B-2)
[2] = target: TAZ 1-163 (N-terminal domain of TAZ), Flag-tagged (UniProt Q9EPK5); test: as above
[3] = target: TAZ 124-395 (C-terminal domain of TAZ containing the WW domain), Flag-tagged (UniProt Q9EPK5); test: as above
[4] = target: Flag-tagged full-length TAZ (transcriptional coactivator with PDZ-binding motif) (UniProt Q9EPK5); test: as above
[5] = target: Endogenous TAZ (mouse (endogenous in lung tissue and MEF cells)) (UniProt Q9EPK5); test: co-IP; endogenous proteins; mouse lung extracts and MEF cell lysates of WT and TAZ KO mice incubated with anti-TAZ antibody and then protein A/G-agarose beads; immunoblot for NRF2 and TAZ

Binder | binding [1] | binding [2] | binding [3] | binding [4] | binding [5]
B1 | binds | binds | no binding | binds | –
B2 | – | – | – | binds | –
B3 | – | – | – | – | binds
